Results as given in publication PMC5053508.
Where two headings read alike, the source gives them in different places. Results are given in words; binding and its absence hold for the method and conditions named. Binding seen in cells or lysates may run through a third protein. Some entries that bind do so weakly or less than the wild type. For part of these data: Sequences can lack the tags named with a protein.

By UniProt entry, the sequences of proteins in these tests, tags left out.
UniProt Q99683: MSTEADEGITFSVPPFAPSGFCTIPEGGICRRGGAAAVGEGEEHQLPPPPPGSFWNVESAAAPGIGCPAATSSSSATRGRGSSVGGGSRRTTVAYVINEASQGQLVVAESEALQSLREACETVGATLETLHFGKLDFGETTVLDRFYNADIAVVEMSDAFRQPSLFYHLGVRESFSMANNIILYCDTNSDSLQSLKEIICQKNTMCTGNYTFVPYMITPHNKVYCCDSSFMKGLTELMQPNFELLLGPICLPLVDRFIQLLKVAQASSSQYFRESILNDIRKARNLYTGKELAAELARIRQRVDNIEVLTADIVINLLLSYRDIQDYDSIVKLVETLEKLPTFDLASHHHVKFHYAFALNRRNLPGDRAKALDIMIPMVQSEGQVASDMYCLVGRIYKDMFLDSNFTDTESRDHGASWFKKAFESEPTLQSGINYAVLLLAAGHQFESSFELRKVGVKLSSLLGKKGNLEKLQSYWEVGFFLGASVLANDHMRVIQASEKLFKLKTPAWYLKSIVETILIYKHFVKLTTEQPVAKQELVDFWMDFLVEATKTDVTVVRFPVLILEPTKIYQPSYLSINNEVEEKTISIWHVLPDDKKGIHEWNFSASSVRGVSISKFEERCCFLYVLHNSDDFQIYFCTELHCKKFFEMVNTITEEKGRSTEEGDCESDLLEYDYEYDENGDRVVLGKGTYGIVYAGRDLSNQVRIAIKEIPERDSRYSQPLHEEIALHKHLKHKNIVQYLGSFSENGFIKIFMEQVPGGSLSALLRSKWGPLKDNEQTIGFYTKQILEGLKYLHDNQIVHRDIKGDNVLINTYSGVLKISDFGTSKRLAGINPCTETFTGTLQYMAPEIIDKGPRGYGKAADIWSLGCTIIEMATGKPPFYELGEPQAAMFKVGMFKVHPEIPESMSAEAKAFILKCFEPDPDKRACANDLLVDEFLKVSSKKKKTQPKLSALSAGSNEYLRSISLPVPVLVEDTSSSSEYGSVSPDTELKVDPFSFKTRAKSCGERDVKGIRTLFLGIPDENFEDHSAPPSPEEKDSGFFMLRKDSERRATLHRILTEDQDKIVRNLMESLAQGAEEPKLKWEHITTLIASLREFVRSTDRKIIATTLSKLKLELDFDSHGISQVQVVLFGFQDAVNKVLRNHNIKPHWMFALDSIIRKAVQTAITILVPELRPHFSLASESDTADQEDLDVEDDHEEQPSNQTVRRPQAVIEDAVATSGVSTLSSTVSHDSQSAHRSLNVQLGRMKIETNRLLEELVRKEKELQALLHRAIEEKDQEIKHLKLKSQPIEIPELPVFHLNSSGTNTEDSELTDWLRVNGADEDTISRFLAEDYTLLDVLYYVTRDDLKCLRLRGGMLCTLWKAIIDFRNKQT
UniProt O14733: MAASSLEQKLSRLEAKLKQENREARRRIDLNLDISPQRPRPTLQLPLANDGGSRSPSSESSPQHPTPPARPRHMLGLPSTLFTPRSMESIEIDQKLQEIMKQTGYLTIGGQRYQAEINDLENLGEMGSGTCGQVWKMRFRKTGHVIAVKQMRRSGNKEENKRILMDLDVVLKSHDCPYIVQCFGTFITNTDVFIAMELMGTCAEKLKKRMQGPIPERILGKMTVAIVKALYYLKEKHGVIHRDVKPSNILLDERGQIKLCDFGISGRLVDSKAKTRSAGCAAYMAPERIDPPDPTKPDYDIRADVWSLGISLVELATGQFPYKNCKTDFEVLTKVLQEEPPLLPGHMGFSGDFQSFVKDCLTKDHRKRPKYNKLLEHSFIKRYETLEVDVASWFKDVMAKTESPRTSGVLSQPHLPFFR
UniProt P45983: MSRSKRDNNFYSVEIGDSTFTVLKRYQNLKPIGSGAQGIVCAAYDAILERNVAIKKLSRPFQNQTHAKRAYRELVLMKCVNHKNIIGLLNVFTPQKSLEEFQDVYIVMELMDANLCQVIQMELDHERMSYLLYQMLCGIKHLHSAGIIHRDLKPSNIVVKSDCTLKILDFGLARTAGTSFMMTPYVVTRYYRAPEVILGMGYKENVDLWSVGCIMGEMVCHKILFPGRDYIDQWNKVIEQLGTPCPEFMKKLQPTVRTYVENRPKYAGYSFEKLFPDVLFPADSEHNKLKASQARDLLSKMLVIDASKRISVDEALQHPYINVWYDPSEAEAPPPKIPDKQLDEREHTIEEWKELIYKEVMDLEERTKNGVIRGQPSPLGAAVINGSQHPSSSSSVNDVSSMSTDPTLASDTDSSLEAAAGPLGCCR

T1: FLAG-DUSP22 WT (dual-specificity phosphatase 22) (UniProt Q9NRW4)
T1 sequence: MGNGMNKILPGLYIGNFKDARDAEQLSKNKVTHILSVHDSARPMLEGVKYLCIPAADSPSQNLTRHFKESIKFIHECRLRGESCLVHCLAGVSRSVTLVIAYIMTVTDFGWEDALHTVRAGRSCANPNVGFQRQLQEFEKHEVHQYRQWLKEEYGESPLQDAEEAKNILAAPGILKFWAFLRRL

T2: FLAG-DUSP22 C88S (UniProt Q9NRW4)
T2 sequence: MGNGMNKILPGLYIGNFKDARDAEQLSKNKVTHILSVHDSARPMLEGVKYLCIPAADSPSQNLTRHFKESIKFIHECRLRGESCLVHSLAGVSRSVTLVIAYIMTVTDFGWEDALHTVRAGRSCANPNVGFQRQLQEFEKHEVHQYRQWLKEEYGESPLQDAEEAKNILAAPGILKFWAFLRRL


Legend:
FLAG-ASK1 [1] = biological target: FLAG-ASK1 (UniProt Q99683); assay: co-IP; HEK 293 cells co-transfected with FLAG-ASK1 and GST-MKK7, then with HA-DUSP22 plasmid (0, 0.75, 1.5, 3 μg); lysate precipitated with anti-FLAG M2 affinity gel; immunoblot with anti-HA, anti-GST or anti-FLAG
[2] = biological target: T1, FLAG-DUSP22 WT (dual-specificity phosphatase 22); assay: co-IP; HEK 293 cells co-transfected with a FLAG-tagged and an HA-tagged protein, lysed after 48 h in PTP lysis buffer (20 mM Tris-HCl pH 7.5, 150 mM NaCl, 1 mM EDTA, 0.5% Triton X-100, 0.5% IGEPAL, 10% glycerol, 1 mM DTT); lysate precipitated with anti-FLAG M2 affinity gel 16 h at 4°C; immunoblot with anti-HA
FLAG-DUSP22 C88S = biological target: T2, FLAG-DUSP22 C88S; assay: as above
FLAG-ASK1 [3] = biological target: FLAG-ASK1 (UniProt Q99683); assay: as above
[4] = biological target: T1, FLAG-DUSP22 WT (dual-specificity phosphatase 22); assay: as above; remark: listed apart in the source

Row | binding [2] | binding (FLAG-DUSP22 C88S) | Molecule | other results
1 |  |  | GST-MKK7 (from UniProt O14733 1-419) (enzyme) | binding (FLAG-ASK1 [1]): binds
2 | binds | binds | HA-JNK1 (c-Jun N-terminal kinase 1) (from UniProt P45983 1-427) (enzyme) | 
3 | binds | binds | HA-JNK2 (c-Jun N-terminal kinase 2) (from UniProt P45984 1-424) (enzyme) | 
4 | binds | binds | HA-MKK7 (MAPK kinase 7) (from UniProt O14733 1-419) (enzyme) | 
5 |  |  | HA-DUSP22 WT (enzyme, UniProt Q9NRW4 1-184) MGNGMNKILPGLYIGNFKDARDAEQLSKNKVTHILSVHDSARPMLEGVKYLCIPAADSPSQNLTRHFKESIKFIHECRLRGESCLVHCLAGVSRSVTLVIAYIMTVTDFGWEDALHTVRAGRSCANPNVGFQRQLQEFEKHEVHQYRQWLKEEYGESPLQDAEEAKNILAAPGILKFWAFLRRL | binding (FLAG-ASK1 [3]): binds
6 |  |  | HA-MKK4 (enzyme, UniProt P45985 1-399) MAAPSPSGGGGSGGGSGSGTPGPVGSPAPGHPAVSSMQGKRKALKLNFANPPFKSTARFTLNPNPTGVQNPHIERLRTHSIESSGKLKISPEQHWDFTAEDLKDLGEIGRGAYGSVNKMVHKPSGQIMAVKRIRSTVDEKEQKQLLMDLDVVMRSSDCPYIVQFYGALFREGDCWICMELMSTSFDKFYKYVYSVLDDVIPEEILGKITLATVKALNHLKENLKIIHRDIKPSNILLDRSGNIKLCDFGISGQLVDSIAKTRDAGCRPYMAPERIDPSASRQGYDVRSDVWSLGITLYELATGRFPYPKWNSVFDQLTQVVKGDPPQLSNSEEREFSPSFINFVNLCLTKDESKRPKYKELLKHPFILMYEERAVEVACYVCKILDQMPATPSSPMYVD | binding [4]: no binding
